# Assay results reported in PubChem BioAssay AID686979 (National Center for Advancing Translational Sciences (NCATS), 2013).
# “And” between values parts separate entries of the source, which are not always exact repeats. Equal entries are not always repeated. The campaign covered roughly 420,000 compounds. About 50,000 (12%) were called active. Inconclusive results, whose numbers are uncertain, are shown with a selection of clear calls. The call rests on the fitted dose curve; in most records, active means well fitted inhibition curve with a large enough effect; inconclusive means small, poorly fitted or top-dose-only effect; inactive means flat fitted curve, though single readings scatter. Potencies beside an inconclusive call are fits to weak or partial responses and may not hold up.
# Assay: qHTS for Inhibitors of human tyrosyl-DNA phosphodiesterase 1 (TDP1): qHTS in cells in presence of CPT; further: nearly all actives have a fitted effect of over 55% in size
# Conditions: chicken DT40 Tdp1-/-;hTDP1 cells + 20 nM CPT, ATP luminescence, 48 h; series mostly up to 46.2 µM
# Procedure, shortened: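 Chicken DT40 Tdp1-/- cells stably complemented with human TDP1 were seeded at 400 cells/well in medium containing 20 nM camptothecin, exposed to pin-transferred compounds, and grown at 37 °C for at least 48 hr. Viability was read as ATP luminescence.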
# Potency means the concentration at half of the fitted maximal effect; tags describe the fitted curve by direction and shape.
row,Compound,Potency
1,CCN1C(=O)c2ccccc2S(=O)(=O)c2ccc(C(=O)NCc3cccnc3)cc21,inactive
2,CCOC(=O)c1cccc(C(=O)OCC)n1,inactive
3,CCOc1ccc(S(=O)(=O)NCCC(=O)NC2CCN(Cc3ccccc3)CC2)cc1,inactive
4,CCC(CC)c1nnc(NC(=O)C23CC4CC(CC(NC(C)=O)(C4)C2)C3)s1,"inconclusive: 29.1 µM [inhibitor, single point]"
5,CC(=O)Nc1ccc(NC(=O)CSc2nc3ccccc3o2)cc1,inactive
6,CCOc1ccccc1NC(=O)/C=C/c1ccc(S(=O)(=O)N2CCOCC2)cc1,"inconclusive: 32.6 µM [inhibitor, partial curve, poor fit]"
7,COc1ccc(C(=O)C(C)[n+]2ccc(C)c3ccccc32)cc1[N+](=O)[O-] (stereo unspecified),active: 18.4 µM
8,O=S(=O)(NC1CCCCCC1)c1cccc(Cl)c1,"inconclusive: 20.6 µM [inhibitor, single point]"
9,COc1ccc([C@H]2N[C@]3(CCCN(Cc4ccc(C)cc4)C3=O)[C@H]3C(=O)N(Cc4ccccc4)C(=O)[C@@H]23)cc1,"inconclusive: 20.6 µM [inhibitor, single point]"
10,CC(CCc1ccccc1)NC(=O)c1cc2sccc2n1C (stereo unspecified),"inconclusive: 35.5 µM [inhibitor, single point]"
11,S=C(NCc1cccnc1)Nc1ccc(Cl)c(Cl)c1,inactive
12,COc1ccc(-c2ccccc2)cc1NC(=O)C1(C)CCN1C(=O)C(C)C (stereo unspecified),"inconclusive: 23.1 µM [inhibitor, single point]"
13,O=C(CN1CCCN(Cc2ccc(F)cc2)S1(=O)=O)NCc1ccccc1Cl,"inconclusive: 29.1 µM [inhibitor, single point]"
14,C[C@H]1COC(=O)CC/C=C\C[C@H](CC(=O)N(CCO)Cc2ccccc2)C(=O)N1,inactive
15,COc1ccc(C2CC(c3ccccc3)=NN2C(=O)CCC(=O)O)cc1 (stereo unspecified),inactive
16,CCn1c(/C=C/c2cccc([N+](=O)[O-])c2)nc2ccccc2c1=O,"inconclusive: 29.1 µM [inhibitor, single point]"
17,O=C(Nc1c(C(=O)N2CCN(c3ccccc3F)CC2)oc2ccccc12)c1ccccc1F,active: 13 µM
18,O=C(CSc1nc2ccncc2[nH]1)Nc1ccccc1C(F)(F)F,"inconclusive: 20.6 µM [inhibitor, partial curve] and inconclusive: 23.1 µM [inhibitor, partial curve]"
19,Cc1csc2nc(COC(=O)CNC(=O)c3ccccc3Cl)cc(=O)n12,inactive
20,COC(=O)CCCCC1SCC(NC(=O)c2ccccc2)C1OC(C)=O (stereo unspecified),"inconclusive: 29.1 µM [inhibitor, single point]"
21,O=C(NCc1ccccc1)c1ccc(NC(=O)C2CCC2)cc1,inactive
22,Cc1ccc(-n2nc3c(=O)n(CCCC(=O)NCc4ccccc4F)nc(C)c3c2C)cc1,"inconclusive: 18.4 µM [inhibitor, single point] and inconclusive: 29.1 µM [inhibitor, partial curve]"
23,Cc1nc(-c2ccc(S(=O)(=O)N3CCN(c4ccc(F)cc4)CC3)cc2)co1,"inconclusive: 23.1 µM [inhibitor, single point]"
24,CCO[C@H]1OC(C(=O)Nc2ccccc2)=C[C@@H](c2ccc(C(F)(F)F)cc2)[C@@H]1CCCO,active: 14.6 µM

row,Compound,Potency
1,N=C1/C(=C/c2ccc(-c3cccc(C(=O)O)c3)o2)C(=O)N=C2SC=C(c3ccccc3)N12,"inconclusive: 29.1 µM [inhibitor, single point]"
2,CN(C)Cc1nc2c(c(=O)[nH]1)C(C)(C)Cc1ccccc1-2,inactive
3,CCn1cc(C(=O)NCc2ccc(C)cc2)c(=O)c2cc(S(=O)(=O)N3CCc4ccccc4C3)ccc21,"inconclusive: 11.6 µM [inhibitor, partial curve]"
4,CCC12CN3CC(CC)(CN(C1)C3c1cc(Br)ccc1OC)C2=O (stereo unspecified),"inconclusive: 25.9 µM [inhibitor, single point]"
5,CCOC(=O)c1oc2ccccc2c1NC(=O)c1cccc(OC)c1OC,active: 16.4 µM
6,CN1CCN(C(=O)c2ccccc2NS(=O)(=O)c2ccc(F)cc2)CC1,inactive
7,O=C1NC(=O)C(=Cc2ccccc2[N+](=O)[O-])S1,"inconclusive: 20.6 µM [inhibitor, single point]"
8,C[C@@H]1CN([C@H](C)CO)C(=O)Cc2cc(NS(=O)(=O)c3ccc(F)cc3)ccc2O[C@H]1CN(C)Cc1ccc(C(=O)O)cc1,inactive
9,COc1ccc(Br)cc1C(=O)NC(=S)Nc1ccc(CN2CCOCC2)cc1,active: 18.4 µM
10,Cc1noc(C)c1S(=O)(=O)Nc1ccc(C(=O)NC2CCCCCC2)cc1,inactive
11,c1ccc2c(c1)OCC(c1csc3ncnc(N4CCOCC4)c13)O2 (stereo unspecified),"inconclusive: 10.3 µM [inhibitor, partial curve]"
12,Cc1ccc(-c2nn(-c3ccccc3)cc2C=C2C(=O)CC(C)(C)CC2=O)cc1,active: 14.6 µM
13,CNC(=O)c1ccc(NC(=O)C2CCN(c3ncnc4sc(C)c(C)c34)CC2)cc1,"inconclusive: 16.4 µM [inhibitor, partial curve]"
14,N#Cc1ccccc1NC(=O)c1cnc(N2CCOCC2)c2ccccc12,"inconclusive: 29.1 µM [inhibitor, single point]"
15,O=C(Cn1c(-c2ccc(Cl)cc2)noc1=O)N1CCN(c2ccccc2F)CC1,"inconclusive: 32.6 µM [inhibitor, partial curve, poor fit]"
16,CCc1ccc(N(C)S(=O)(=O)c2ccc3[nH]cc(C(=O)NCC4CCCO4)c(=O)c3c2)cc1 (stereo unspecified),"inconclusive: 18.4 µM [inhibitor, single point]"
17,COc1ccc(C(C)(O)c2nc(-c3ccc(F)c(Cl)c3)cs2)cc1 (stereo unspecified),"inconclusive: 25.9 µM [inhibitor, single point]"
18,Cc1ccc(Nc2nnc(SCC(=O)Nc3cc(C(=O)O)ccc3C)s2)c(C)c1,inactive
19,Cc1cc(OCc2cc(C(=O)N(C)CCc3cnn(C)c3)no2)cc(C)c1Cl,active: 13 µM
20,Cc1cccc(C)c1NC(=O)C(c1ccc(-c2ccccc2)cc1)n1c(=O)c(-c2ccco2)nc2ccccc21 (stereo unspecified),"inconclusive: 29.1 µM [inhibitor, single point]"
21,C=CCn1c(SCc2c(C(=O)OC)sc(N)c2C(=O)OC)nnc1-c1ccc(Br)cc1,"inconclusive: 18.4 µM [inhibitor, single point]"
22,COc1ccccc1N(Cc1ccccc1)S(=O)(=O)c1cccc(C(=O)Nc2ccc(C)cn2)c1,"inconclusive: 18.4 µM [inhibitor, single point]"
23,Cc1nc2c(sc(=S)n2Cc2ccco2)c(=O)n1CC(=O)Nc1ccccc1F,"inconclusive: 16.4 µM [inhibitor, partial curve, poor fit]"
24,COc1ccccc1NC(=O)c1c(N=Cc2c(O)ccc3ccccc23)cnn1C,active: 8.2 µM

row,Compound,Potency
1,COc1ccc(Br)cc1CN(C)CC(O)COc1ccc(Br)cc1 (stereo unspecified),"inconclusive: 20.6 µM [inhibitor, single point]"
2,Cc1ccc(NC(=O)c2oc3c(c2C)C(=O)CC(C)(C)C3)cc1,inactive
3,NC(C(=O)O)C(c1ccccc1)C(F)F (stereo unspecified),inactive
4,CCc1ccc2nc(N3CCN(C(=O)C4CC4)CC3)sc2c1,"inconclusive: 16.4 µM [inhibitor, single point]"
5,C/C(=N\O)C(C)NC(=O)c1ccccc1 (stereo unspecified),inactive
6,CCOc1ccccc1NC(=O)Cn1c2ncccc2c(=O)n1-c1ccc(C)c(C)c1,"inconclusive: 29.1 µM [inhibitor, single point]"
7,Cc1cccc(CN2CCN(C(=O)CCc3nnc(C4CCCCC4)o3)CC2)c1,inactive
8,Cn1nnnc1SCCCNCc1cccc(OCc2ccccc2Cl)c1,active: 18.4 µM
9,COCCCNC(=O)C[C@H]1C[C@H](C(=O)N2CCCCC2)[C@@]2(C)c3[nH]c4cc(-c5ccco5)ccc4c3CCN2C1=O,active: 16.4 µM
10,CC(=O)NCCC(=O)N1CCCC(N2CCN(c3cccc(Cl)c3)CC2)C1 (stereo unspecified),inactive
11,O=C(NC1CCCC1)C1CCN(C(=O)c2ccc(-c3ccccc3)cc2)CC1,inactive
12,COc1ccc(C)cc1NC(=O)CSc1nc(=O)n(Cc2ccccn2)c2c1CCC2,"inconclusive: 29.1 µM [inhibitor, single point]"
13,C[C@@H]1CN([C@@H](C)CO)C(=O)CCCn2nncc2CO[C@H]1CN(C)C(=O)OCc1ccccc1,inactive
14,O=C(O)[C@H]1CCCC[C@H]1C(=O)Nc1ccc(Nc2ccccc2)cc1,inactive
15,CC(C)COP(=O)(OCC(C)C)C(O)c1ccc(N(C)C)cc1 (stereo unspecified),inactive
16,N#Cc1ccc(C(=O)OCC(=O)NC2CCCC2)cc1,inactive
17,Fc1ccc(Cn2c(SCc3ccc(F)c(F)c3)nnc2C(F)(F)F)cc1,"inconclusive: 29.1 µM [inhibitor, single point]"
18,CC(C)OC(=O)n1c(=S)oc2ccccc21,"inconclusive: 29.1 µM [inhibitor, single point]"
19,CCOc1ccc(NC(=O)CN2C(=O)C3(SCC(=O)N3c3ccc(F)cc3)c3ccccc32)cc1 (stereo unspecified),active: 23.1 µM
20,NC(=O)CC(NC(=O)c1ccccc1)c1ccc(NC2CCCCCCC2)c([N+](=O)[O-])c1 (stereo unspecified),active: 23.1 µM
21,Fc1ccc(F)c(C2=NNC(=Nc3ccccc3F)SC2)c1,"inconclusive: 20.6 µM [inhibitor, single point]"
22,O=C(Cc1n[nH]c(=O)c2ccccc12)N1CCN(c2ccc(F)cc2)CC1,"inconclusive: 23.1 µM [inhibitor, single point]"
23,Cc1cccc(C)c1NC(=O)CN1C(=O)c2cccc3cccc1c23,"inconclusive: 29.1 µM [inhibitor, single point]"
